What all share (assay): cell count relative to DMSO control; melanoma cells; higher = more viable cells
One assay concerns MeWo. The conditions noted are these: library dose: low library concentration; 72 h.
The next assay has as its system RPMI7951. The settings on record: library dose: low library concentration; 72 h.
For the next assay, the system named is RVH-421. The conditions noted are these: library dose: low library concentration; 72 h.
The next assay concerns SkMel28. The settings on record: library dose: low library concentration; 72 h.
Another assay relates to SkMel2. The conditions noted are these: library dose: low library concentration; 72 h.
Another assay concerns SkMel30. The settings on record: library dose: low library concentration; 72 h.
In another assay the test system is SkMel5. The conditions noted are these: library dose: low library concentration; 72 h.
The subject of a further assay is UACC257. The settings on record: library dose: low library concentration; 72 h.
A further assay has as its system UACC62. The conditions noted are these: library dose: low library concentration; 72 h.
For the next assay, the system named is WM115. The conditions noted are these: library dose: low library concentration; 72 h.
The subject of another assay is WM1716. The conditions noted are these: library dose: low library concentration; 72 h.
The next assay deals with WM1745. The settings on record: library dose: low library concentration; 72 h.
The next assay deals with WM3526. The settings on record: library dose: low library concentration; 72 h.
The subject of another assay is WM3619. The conditions noted are these: library dose: low library concentration; 72 h.
In another assay the test system is WM451Lu. The conditions noted are these: library dose: low library concentration; 72 h.
The next assay relates to 501Mel. The settings on record: library dose: standard library concentration; 72 h.
For the next assay, the system named is A101D. The settings on record: library dose: standard library concentration; 72 h.
For the next assay, the system named is A2058. The settings on record: library dose: standard library concentration; 72 h.
For the next assay, the system named is A375. The settings on record: library dose: standard library concentration; 72 h.

Some of the results follow. Single values are uncertain, as repeats are few or missing.

For `CC(=O)c1c(C)c2cnc(Nc3ccc(N4CCNCC4)cn3)nc2n(C2CCCC2)c1=O` [palbociclib] + O=S(=O)(c1ccccc1)N(CC(F)(F)F)c1ccc(C(O)(C(F)(F)F)C(F)(F)F)cc1 [T0901317] (first compound 0.04 µM, partner dose 1.4 µM), the cell count in the assay with MeWo turned out to be 79.9%; in the assay with RPMI7951, 61.4%; with RVH-421, 67%; in the assay on SkMel28 it was 58.7%; in the assay with SkMel2, 73%; in the assay on SkMel30, 78.6%. The cell count came out at 70.7% in the assay with SkMel5; 63.1% in the assay on UACC257; 63.7% in the assay on UACC62; 66.3% in the assay with WM115; 48.1% with WM1716; 63% with WM1745. The results for the cell count with WM3526, in the assay on WM3619 and in the assay on WM451Lu were 92.9%, 76.1% and 58.9%, respectively.
For the compound `Nc1ccn([C@@H]2O[C@H](CO)[C@@H](O)C2(F)F)c(=O)n1` [gemcitabine] + O=C(Nc1ccccc1)c1cc([N+](=O)[O-])ccc1Cl [GW9662] (first compound 0.0004 µM, partner dose 2 µM), the cell count in the assay on MeWo came out at 99.2%; in the assay on RPMI7951, 75%; with RVH-421, 97.7%; in the assay with SkMel28, 87.6%; with SkMel30, 95%; with SkMel5, 95.1%. Moreover, the cell count was 96.6% in the assay on UACC257; 96.5% in the assay on UACC62; 84% in the assay with WM115; 101% in the assay on WM1716; 75.3% in the assay on WM1745; 107% in the assay with WM3526. Also, the cell count came out at 72% in the assay on WM3619 and 110% in the assay on WM451Lu.
Regarding `CO[C@H]1C[C@@H]2CC[C@@H](C)[C@@](O)(O2)C(=O)C(=O)N2CCCC[C@H]2C(=O)O[C@H]([C@H](C)C[C@@H]2CC[C@@H](OCCO)[C@H](OC)C2)CC(=O)[C@H](C)/C=C(\C)[C@@H](O)[C@@H](OC)C(=O)[C@H](C)C[C@H](C)/C=C/C=C/C=C/1C` [everolimus] + COc1ccc(COc2ccc(Cc3cnc(N)nc3N)cc2OC)cc1 [GW2580] (first compound 0.1 µM, partner dose 5 µM), the cell count amounted to 62.4% in the assay on 501Mel, 73.5% with A101D, 57% in the assay on A2058 and 76.5% in the assay with A375.
Regarding `CC(=O)c1c(C)c2cnc(Nc3ccc(N4CCNCC4)cn3)nc2n(C2CCCC2)c1=O` [palbociclib] + COc1cc(Nc2ncc(F)c(Nc3ccc4c(n3)NC(=O)C(C)(C)O4)n2)cc(OC)c1OC [Tamatinib] (first compound 0.04 µM, partner dose 0.4 µM), the cell count with MeWo stood at 65.8%; in the assay with RPMI7951, 59%; in the assay on RVH-421, 79.6%; with SkMel28, 66.1%; with SkMel30 it was 76.1%; in the assay with SkMel5, 60%. Also, the cell count in the assay with UACC257 stood at 48.9%; in the assay with UACC62, 69.3%; in the assay with WM115 it was 69.4%; in the assay with WM1716, 52.9%; in the assay on WM1745 it was 51.7%; in the assay on WM3526 it was 48.5%. In addition, the cell count with WM3619 stood at 77%; in the assay with WM451Lu, 80.8%.
On to `Nc1ccn([C@@H]2O[C@H](CO)[C@@H](O)C2(F)F)c(=O)n1` [gemcitabine] + Oc1cc(-c2nc(-c3ccccc3)[nH]c2-c2ccncc2)ccc1Cl [L779450] (first compound 0.002 µM, partner dose 1 µM), for which the cell count with 501Mel stood at 87.7%; with A101D, 67.3%; with A2058, 68.8%; in the assay on A375, 125%.
The like results for `CC(=O)c1c(C)c2cnc(Nc3ccc(N4CCNCC4)cn3)nc2n(C2CCCC2)c1=O` [palbociclib] + COc1cc2ncnc(Nc3ccc(Oc4ccccc4)cc3)c2cc1OC [SrcI1] (first compound 0.2 µM, partner dose 10 µM) were, in that order, 46.6%, 54.9%, 61.4% and 111%.
In the case of `Nc1ccn([C@@H]2O[C@H](CO)[C@@H](O)C2(F)F)c(=O)n1` [gemcitabine] + C#Cc1cccc(Nc2ncnc3cc(OCCOC)c(OCCOC)cc23)c1 [erlotinib] (first compound 0.0004 µM, partner dose 0.8 µM), the cell count was determined as 87.6% in the assay on MeWo; 78.5% with RPMI7951; 103% with RVH-421; 101% in the assay with SkMel28; 112% in the assay with SkMel2; 94.1% in the assay with SkMel30. The cell count with UACC62 was found to be 88.2%; in the assay with WM115, 93%; in the assay on WM1716 it was 97.4%; in the assay with WM1745, 67.6%; in the assay with WM3526 it was 115%; in the assay on WM3619, 79%. Also, the cell count in the assay on WM451Lu worked out at 99.5%.
Turning to `CO[C@H]1C[C@@H]2CC[C@@H](C)[C@@](O)(O2)C(=O)C(=O)N2CCCC[C@H]2C(=O)O[C@H]([C@H](C)C[C@@H]2CC[C@@H](OCCO)[C@H](OC)C2)CC(=O)[C@H](C)/C=C(\C)[C@@H](O)[C@@H](OC)C(=O)[C@H](C)C[C@H](C)/C=C/C=C/C=C/1C` [everolimus] + CCCCCCCCCCCC1=C(O)C(=O)C=C(O)C1=O [Embelin] (first compound 0.1 µM, partner dose 6 µM), the cell count was found to be 66.5% with 501Mel, 76.2% in the assay on A101D, 67.1% with A2058 and 118% in the assay with A375.
The like results for `CC(=O)O[C@@]12CO[C@@H]1C[C@H](O)[C@@]1(C)C(=O)[C@H](O)C3=C(C)[C@@H](OC(=O)[C@H](O)[C@@H](NC(=O)OC(C)(C)C)c4ccccc4)C[C@@](O)([C@@H](OC(=O)c4ccccc4)[C@H]21)C3(C)C` [Docetaxel] + CC(C)CCN1c2nc(Nc3cc(F)c(O)c(F)c3)ncc2N(C)C(=O)C1C [BID1870] (first compound 0.0005 µM, partner dose 1 µM) were, in that order, 36.9%, 36.9%, 7.45% and 67.5%.
`CO[C@H]1C[C@@H]2CC[C@@H](C)[C@@](O)(O2)C(=O)C(=O)N2CCCC[C@H]2C(=O)O[C@H]([C@H](C)C[C@@H]2CC[C@@H](OCCO)[C@H](OC)C2)CC(=O)[C@H](C)/C=C(\C)[C@@H](O)[C@@H](OC)C(=O)[C@H](C)C[C@H](C)/C=C/C=C/C=C/1C` [everolimus] + COCC[n+]1c2c(n(Cc3cnccn3)c1C)C(=O)c1ccccc1C2=O [YM155] (first compound 0.02 µM, partner dose 0.0004 µM): the cell count in the assay with MeWo was determined as 69.9%; in the assay on RPMI7951, 89.2%; with RVH-421, 85.5%; with SkMel28, 66.2%; with SkMel30, 70.7%; in the assay on UACC62, 66.7%. Besides, the cell count in the assay with WM115 stood at 88.3%; with WM1716, 83%; in the assay with WM1745, 78.7%; in the assay with WM3526, 83.9%; in the assay with WM3619, 81.3%; with WM451Lu, 71.3%.
